We go through 17 molecules from ChEMBL document CHEMBL5506067, “Searching for Synthetic Opioid Rescue Agents: Identification of a Potent Opioid Agonist with Reduced Respiratory Depression” (J Med Chem, 2024).

Bounds are passed on as bounds.

Holding throughout (type): functional, cell-based
The target in assay [1] is T1, Mu-type opioid receptor (Homo sapiens, UniProt P35372). Description: Agonist activity at human MOR expressed in CHO-K1 cells assessed as decrease in cAMP level incubated for 30 mins in presence of forskolin by HitHunter cAMP analysis. In general terms: cAMP levels reflect the balance of adenylyl cyclase and phosphodiesterase activity.
T1 sequence (P35372 whole entry): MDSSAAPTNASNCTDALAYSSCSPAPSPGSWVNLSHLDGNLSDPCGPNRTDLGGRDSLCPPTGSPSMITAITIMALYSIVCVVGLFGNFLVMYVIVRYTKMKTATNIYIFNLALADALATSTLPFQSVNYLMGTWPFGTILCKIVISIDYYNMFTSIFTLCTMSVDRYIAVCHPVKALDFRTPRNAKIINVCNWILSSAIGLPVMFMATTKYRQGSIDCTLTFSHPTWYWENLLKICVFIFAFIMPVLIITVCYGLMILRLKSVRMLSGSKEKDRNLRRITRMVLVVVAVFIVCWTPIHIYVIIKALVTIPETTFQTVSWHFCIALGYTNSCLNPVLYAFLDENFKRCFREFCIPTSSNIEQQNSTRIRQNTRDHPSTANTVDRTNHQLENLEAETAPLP
The target in assay [2] is T2, Delta-type opioid receptor (Homo sapiens, UniProt P41143). Kind of assay: Agonist activity at human DOR expressed in CHO-K1 cells assessed as decrease in cAMP level incubated for 30 mins in presence of forskolin by HitHunter cAMP analysis.
T2 sequence (P41143 whole entry): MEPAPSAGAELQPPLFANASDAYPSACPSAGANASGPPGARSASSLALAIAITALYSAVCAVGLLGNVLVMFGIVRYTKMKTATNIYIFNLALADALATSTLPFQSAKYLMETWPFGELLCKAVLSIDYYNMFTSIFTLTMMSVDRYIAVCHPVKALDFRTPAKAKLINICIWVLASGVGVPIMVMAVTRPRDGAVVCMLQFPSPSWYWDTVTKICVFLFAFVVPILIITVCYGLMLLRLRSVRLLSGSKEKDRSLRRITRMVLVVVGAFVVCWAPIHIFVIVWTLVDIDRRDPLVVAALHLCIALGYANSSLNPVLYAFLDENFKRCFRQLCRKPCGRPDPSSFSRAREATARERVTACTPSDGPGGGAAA
The target of assay [3] is T3, Kappa-type opioid receptor (Homo sapiens, UniProt P41145). Kind of assay: Agonist activity at human KOR expressed in CHO-K1 cells assessed as decrease in cAMP level incubated for 30 mins in presence of forskolin by HitHunter cAMP analysis.
T3 sequence (P41145 whole entry): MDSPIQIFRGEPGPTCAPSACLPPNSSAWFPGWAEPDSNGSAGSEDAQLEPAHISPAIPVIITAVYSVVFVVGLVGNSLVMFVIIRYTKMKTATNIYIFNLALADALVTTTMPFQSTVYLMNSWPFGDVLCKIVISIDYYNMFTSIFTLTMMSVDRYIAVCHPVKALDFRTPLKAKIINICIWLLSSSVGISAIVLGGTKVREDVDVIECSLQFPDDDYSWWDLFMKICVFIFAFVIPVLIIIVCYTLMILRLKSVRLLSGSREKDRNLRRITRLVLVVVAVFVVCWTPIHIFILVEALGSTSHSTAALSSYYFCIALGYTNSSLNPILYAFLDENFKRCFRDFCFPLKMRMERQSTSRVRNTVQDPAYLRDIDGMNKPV
In a further assay the target is Nociceptin receptor (Homo sapiens, UniProt P41146). Description: Agonist activity at human NOR expressed in CHO-K1 cells assessed as decrease in cAMP level incubated for 30 mins in presence of forskolin by HitHunter cAMP analysis.
UniProt P41146, sequence (P41146 whole entry): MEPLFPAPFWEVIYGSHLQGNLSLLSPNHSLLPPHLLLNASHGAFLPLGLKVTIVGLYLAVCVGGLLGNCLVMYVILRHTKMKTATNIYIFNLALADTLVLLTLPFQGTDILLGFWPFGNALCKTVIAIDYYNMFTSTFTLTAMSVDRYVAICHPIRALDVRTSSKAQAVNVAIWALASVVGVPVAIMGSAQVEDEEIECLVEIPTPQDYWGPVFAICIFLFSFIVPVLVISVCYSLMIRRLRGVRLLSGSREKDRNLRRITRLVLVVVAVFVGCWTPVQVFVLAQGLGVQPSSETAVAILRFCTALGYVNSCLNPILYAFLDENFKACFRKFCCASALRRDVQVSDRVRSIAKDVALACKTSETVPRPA
Assay [4] has as its target T3, Kappa-type opioid receptor. Kind of assay: Antagonist activity at human KOR expressed in CHO-K1 cells assessed as cAMP level preincubated for 15 mins followed by agonist addition and measured after 30 mins by HitHunter cAMP analysis.
Assay [5] concerns the target T1, Mu-type opioid receptor. Kind of assay: Agonist activity at human MOR expressed in CHO-K1 cells assessed as decrease in beta-arrestin 2 recruitment incubated for 90 mins by HitHunter cAMP analysis. On the technique in general: Arrestin recruitment assays detect the binding of arrestin to an activated receptor.
Assay [6] has as its target T2, Delta-type opioid receptor. Description: Partial agonist activity at human DOR expressed in CHO-K1 cells assessed as decrease in cAMP level incubated for 30 mins in presence of forskolin by HitHunter cAMP analysis.

With `Oc1cccc(N2CCN(CCCc3ccccc3)CC2)c1`, the half-maximal effective concentration (EC50) (commonly the midpoint of the concentration-response curve) on Mu-type opioid receptor [1] is greater than 10000 nM.

Take `C[C@H]1CN(CCCc2ccccc2)CCN1c1cccc(O)c1`: the concentration giving a half-maximal response (EC50) on Mu-type opioid receptor [1] is greater than 10000 nM.

`C[C@@H](Cc1ccsc1)NC(=O)NC[C@H](Cc1ccc(O)cc1)N(C)C`: the figures for the concentration for half-maximal inhibition (IC50) in assay [2] and in assay [4] were 108 nM and 270 nM, respectively. Besides, the EC50 (in assay [3]; at Nociceptin receptor) was greater than 10000 nM throughout.

As for `COc1ccccc1N1[C@@H]2CC[C@H]1CN(CCCc1ccccc1)C2`, the EC50 on Mu-type opioid receptor [1] was determined as 256 nM.

As for `CN1C[C@H]2CC[C@@H](C1)N2c1cccc(O)c1`, the EC50 at Mu-type opioid receptor [1] was 122 nM; at Mu-type opioid receptor [5], greater than 50000 nM.

Regarding `Oc1cccc(N2[C@@H]3CC[C@H]2CN(Cc2ccccc2)C3)c1`, the results for the EC50 on Mu-type opioid receptor [1] and at Mu-type opioid receptor [5] were 41.3 nM and greater than 50000 nM, respectively.

As to `c1ccc(CCCN2C[C@H]3CC[C@@H](C2)N3c2ccccc2)cc1`, the concentration for a half-maximal effect (EC50) is 124 nM at Mu-type opioid receptor [1] and greater than 50000 nM on Mu-type opioid receptor [5].

`Oc1cccc(N2[C@@H]3CC[C@H]2CN(CCc2ccccc2)C3)c1`: the half-maximal inhibitory concentration (IC50) (usually the concentration at which inhibition is half-maximal) in assay [2] turned out to be 23.5 nM. Further, the concentration for a half-maximal effect (EC50) at Nociceptin receptor is greater than 10000 nM.

On to `Oc1cccc(N2[C@@H]3CC[C@H]2CNC3)c1`, for which, at Mu-type opioid receptor [1], the EC50 was 421 nM.

In the case of `COc1cccc(N2[C@@H]3CC[C@H]2CN(CCCc2ccccc2)C3)c1`, the EC50 at Mu-type opioid receptor [1] was determined as 392 nM.

`C[C@@H]1CN(CCCc2ccccc2)C[C@H](C)N1c1cccc(O)c1`: on Mu-type opioid receptor [1], the 50% effective concentration (EC50) is greater than 10000 nM.

For `Oc1cccc(N2[C@@H]3CC[C@H]2CN(CC2CC2)C3)c1`, the EC50 on Mu-type opioid receptor [1] was 517 nM.

In the case of `COc1ccc(N2[C@@H]3CC[C@H]2CN(CCCc2ccccc2)C3)cc1`, the EC50 on Mu-type opioid receptor [1] came to 1110 nM.

For the molecule `C=CCN1C[C@H]2CC[C@@H](C1)N2c1cccc(O)c1`, at Mu-type opioid receptor [1], the EC50 turned out to be 325 nM.

Take `Oc1cccc(CN2[C@@H]3CC[C@H]2CN(CCCc2ccccc2)C3)c1`: the EC50 was 213 nM on Mu-type opioid receptor [1] and greater than 50000 nM at Mu-type opioid receptor [5].

For `C[C@@H]1CN(c2cccc(O)c2)C[C@H](C)N1CCCc1ccccc1`, the values for the EC50 at Mu-type opioid receptor [1] and at Mu-type opioid receptor [5] were 84.2 nM and greater than 50000 nM, respectively.

Take `Oc1cccc(N2C[C@H]3CC[C@@H](C2)N3CCCc2ccccc2)c1`: the EC50 was 0.26 nM on Mu-type opioid receptor [1]; 13.7 nM at Mu-type opioid receptor [5]; 1.77 nM in assay [6]; greater than 10000 nM in assay [3]; greater than 10000 nM on Nociceptin receptor. Besides, the concentration for half-maximal inhibition (IC50) in assay [4] is 96.6 nM.
